Values marked as one replicate rest on one cluster of the flow cell; about a third of the high ones do not repeat.
Test system: ATP
Test: switch fluorescence ratio, 500 uM ATP over buffer (Cy3 cluster intensity, sum of 5 cycles each) (fold (ratio)); higher = stronger signal-on switching upon ATP binding; sequences stand for … in TCGTCGGCAGCGTCAGATGTGTATAAGAGACAGTTTTTTTTTTTTTTTTTTTTTTTTT…TC
Conditions: aptamer strand: ATP DNA aptamer (quencher-CACCTGGGGGAGTATTGCGGAGGAAGG + anchor), 100 nM annealed; ATP concentration: 500 uM; one replicate
How it was run: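 Exposure to 500 uM ATP lasted 15 min at 22 °C before imaging, and a selection-buffer image was taken beforehand, for Cy3-labelled switching-strand clusters on a modified Illumina MiSeq flow-cell annealed to 100 nM quencher-labelled ATP aptamer. Five buffer/ATP cycles were run with NaOH stripping and re-annealing between them. The fluorescence ratio per cluster is summed target-cycle over summed buffer-cycle Cy3 intensity, averaged per switch-domain sequence. Clusters outside 100-1000 RFU were excluded.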

ACCGTGAGAG
switch fluorescence ratio: 1.05

AATAGTGGGA
switch fluorescence ratio: 0.976

GCTTATCCCG
switch fluorescence ratio: 1.06

GTTAGTATGC
switch fluorescence ratio: 1

CACTCAAGTG
switch fluorescence ratio: 1.04

CCATTGGCGC
switch fluorescence ratio: 1.02

CAGTGGCCTT
switch fluorescence ratio: 1.03

ATGGATCAGA
switch fluorescence ratio: 0.969

CGGATTACTT
switch fluorescence ratio: 1.01

CGTGTCCCAC
switch fluorescence ratio: 1.05

AATCACAAGG
switch fluorescence ratio: 1.02

GGCTCTTTCA
switch fluorescence ratio: 0.974

TCTCACTTGA
switch fluorescence ratio: 1.11

GAAATAGTCG
switch fluorescence ratio: 0.997

TCGAAGTGGA
switch fluorescence ratio: 0.992

CTAGGAGATT
switch fluorescence ratio: 1

CATTTAGCCC
switch fluorescence ratio: 1.01

TGACGGGAGA
switch fluorescence ratio: 1.04

CGAAACTGGG
switch fluorescence ratio: 0.972

ATAATGGCAC
switch fluorescence ratio: 1

GTTTCATATT
switch fluorescence ratio: 1.03

GACCAATACG
switch fluorescence ratio: 2.21

AACGAGAAGA
switch fluorescence ratio: 1.02

TTCCTCGTAT
switch fluorescence ratio: 1.31

GTTTTCGAGG
switch fluorescence ratio: 0.986

TCGTGTGCAT
switch fluorescence ratio: 1.01

TTAAAGGCGG
switch fluorescence ratio: 1.04

TTATTCCATG
switch fluorescence ratio: 1

TTATGGAGTC
switch fluorescence ratio: 1.04

TCTTTCTCAA
switch fluorescence ratio: 1.06

CAGGAAAGGT
switch fluorescence ratio: 0.981

CTCCGGGGCT
switch fluorescence ratio: 1.8

CCAGTATGCC
switch fluorescence ratio: 0.936

TGGTAGACAG
switch fluorescence ratio: 0.991

TATGGCTT
switch fluorescence ratio: 0.987

CCTAATCGAG
switch fluorescence ratio: 1.04

CACAAACAGT
switch fluorescence ratio: 1.05

CGATAGTTTG
switch fluorescence ratio: 0.992

CGGAGTTTGA
switch fluorescence ratio: 1.02

CTGTAGACAA
switch fluorescence ratio: 3.27

TAAGACGCAC
switch fluorescence ratio: 1.59

GGCGTACAAC
switch fluorescence ratio: 1

AGATAGGGGC
switch fluorescence ratio: 1.01

TCGCATATTA
switch fluorescence ratio: 1.45

ACCTAGGGGG
switch fluorescence ratio: 1.04

GAGCCTTGGT
switch fluorescence ratio: 0.95

AATCCATAGC
switch fluorescence ratio: 1.05

CGAGTATGA
switch fluorescence ratio: 1.02

AAATAATCCC
switch fluorescence ratio: 1.06

GTTGAGTCCC
switch fluorescence ratio: 1

AATATGGTCA
switch fluorescence ratio: 1

CAGGGTGTA
switch fluorescence ratio: 1.04

TACCCTTATC
switch fluorescence ratio: 1.09

TTTGCATGC
switch fluorescence ratio: 1.01

TTCAGTTCCG
switch fluorescence ratio: 0.998

GGTGGGACAG
switch fluorescence ratio: 1

CAGGCCCAAA
switch fluorescence ratio: 0.962

GACATAAAGC
switch fluorescence ratio: 1.33

ACACGTATGG
switch fluorescence ratio: 1

CCAGTGTTTT
switch fluorescence ratio: 1

GGCTGTCCGT
switch fluorescence ratio: 1.02

ACGCTCACTT
switch fluorescence ratio: 1.44

GCTAGAGTCG
switch fluorescence ratio: 1

CCTAACTGGG
switch fluorescence ratio: 0.984

ACGCTCTGCC
switch fluorescence ratio: 1.02

AACGCGGTC
switch fluorescence ratio: 1.15

AGGTGCAATC
switch fluorescence ratio: 1.86

TCCAATGT
switch fluorescence ratio: 1.02

TGCGGGCACA
switch fluorescence ratio: 1

TTAGATCAAA
switch fluorescence ratio: 1.02

TGAAACCAAA
switch fluorescence ratio: 0.995

AATTTGGTGG
switch fluorescence ratio: 0.97

GCGAAAGAGC
switch fluorescence ratio: 0.997

AACTGGGCGT
switch fluorescence ratio: 1.03

ATAGGGTTAA
switch fluorescence ratio: 1.08

TGTAGGTAGC
switch fluorescence ratio: 0.997

CGGGGGGAG
switch fluorescence ratio: 0.979

TTACTACAAG
switch fluorescence ratio: 1.03

TATTGGGCTC
switch fluorescence ratio: 0.937

CTCATAGAGC
switch fluorescence ratio: 0.971

AAGGACCTCT
switch fluorescence ratio: 0.979

CACTAACGAT
switch fluorescence ratio: 1.26

TGCAGGCTG
switch fluorescence ratio: 1.03

TAGTCGTCAG
switch fluorescence ratio: 0.977

AGCTCAGTCT
switch fluorescence ratio: 0.991

TCATCTTATC
switch fluorescence ratio: 1.02

GCTCCTTGTT
switch fluorescence ratio: 1.04

CCGTTGTTTC
switch fluorescence ratio: 1.14

ATCAGTACGC
switch fluorescence ratio: 1.04

TAAATCCGCT
switch fluorescence ratio: 1.22

CCGAGAGAAC
switch fluorescence ratio: 1.91

CGGAAAAAGA
switch fluorescence ratio: 1.03

AGGTACTTGC
switch fluorescence ratio: 1.02

CAAGGTACTA
switch fluorescence ratio: 1.04

ATATCCCACG
switch fluorescence ratio: 1.04

GCGACGTTAG
switch fluorescence ratio: 0.963

ATCTATCATC
switch fluorescence ratio: 1.02

TGAAAGGCAT
switch fluorescence ratio: 1.03

CCCGGTCTGA
switch fluorescence ratio: 1.01

CGGGTACTAT
switch fluorescence ratio: 0.975

CAGTCGTTTC
switch fluorescence ratio: 1

GACTAGGGTA
switch fluorescence ratio: 0.952

AGCCGTCACA
switch fluorescence ratio: 0.982

AGAAATGTAC
switch fluorescence ratio: 1.09

ATGGTCGTGG
switch fluorescence ratio: 1.05

AGTATATTTC
switch fluorescence ratio: 0.958

GCAAGATGGT
switch fluorescence ratio: 1.02

TTCATGTCC
switch fluorescence ratio: 1.04

CGGCGGACGG
switch fluorescence ratio: 1.01

CCGCCCTGTG
switch fluorescence ratio: 2.36

GCTGAGCTTT
switch fluorescence ratio: 1.02

TCACCGCGTT
switch fluorescence ratio: 1.75

GTGTGCAAAA
switch fluorescence ratio: 1.05

CAGATGGCCT
switch fluorescence ratio: 1.02

ACTCACCATC
switch fluorescence ratio: 1.25

AAATATCGCA
switch fluorescence ratio: 1.04

CGGTTGGTAA
switch fluorescence ratio: 1.02

GATACTTTGG
switch fluorescence ratio: 0.998

CTCAGGCTCC
switch fluorescence ratio: 1.21

ACTCTTGGT
switch fluorescence ratio: 0.993

ACATGGCTTC
switch fluorescence ratio: 0.988

CACGGCATT
switch fluorescence ratio: 1.21

ATTTGGCAGC
switch fluorescence ratio: 1.01

AAACGACCGC
switch fluorescence ratio: 1.21

TCATCACATT
switch fluorescence ratio: 1

TGTTGGCGAT
switch fluorescence ratio: 1

TACCCATAGC
switch fluorescence ratio: 1.11

CCTCTATGTT
switch fluorescence ratio: 1.09

TGGGTGAGAA
switch fluorescence ratio: 0.977

CAAGGTCTTG
switch fluorescence ratio: 0.979

TGTGCTAACA
switch fluorescence ratio: 0.964

GGACACATTC
switch fluorescence ratio: 1.08

CATTCAGATC
switch fluorescence ratio: 0.985

CAATAAATCA
switch fluorescence ratio: 0.99

CCGTTTCAGC
switch fluorescence ratio: 0.979

AGGAGTATAG
switch fluorescence ratio: 0.987

TTCTAAAAA
switch fluorescence ratio: 1.94

CGGTTCACCG
switch fluorescence ratio: 0.97

ATAAATTGAA
switch fluorescence ratio: 1

TACAGCCGGG
switch fluorescence ratio: 1.06

GTATGTCGTC
switch fluorescence ratio: 0.951

TCAGGGAATG
switch fluorescence ratio: 0.997

TATTCTTTCC
switch fluorescence ratio: 1.21

GATCTTTTCA
switch fluorescence ratio: 0.986

GTGTTCCACG
switch fluorescence ratio: 0.997

GACTGCAGAA
switch fluorescence ratio: 1.08

ACGGGGAAAT
switch fluorescence ratio: 0.964

TATTACCTCG
switch fluorescence ratio: 0.975

GTATAGGTCC
switch fluorescence ratio: 1.02

GTATGGACTC
switch fluorescence ratio: 0.976

GCGGCAACAT
switch fluorescence ratio: 0.943

GTCGTCAAGC
switch fluorescence ratio: 1.02

TGTAGATAAT
switch fluorescence ratio: 1

AGTCTTTATG
switch fluorescence ratio: 0.974

GTTAGTAGTA
switch fluorescence ratio: 0.988

TATGTAGTTA
switch fluorescence ratio: 1.08

GGGAAAACGA
switch fluorescence ratio: 1.01

AAGATCTATA
switch fluorescence ratio: 1

GACGTGATGG
switch fluorescence ratio: 1.28

CGCGACCTGC
switch fluorescence ratio: 1.11

GCTGCTACTG
switch fluorescence ratio: 1.08

GTGTACGCGA
switch fluorescence ratio: 1.26

AACGTTAGTA
switch fluorescence ratio: 0.948

ACCCTGTATA
switch fluorescence ratio: 0.992

CATGTAAATA
switch fluorescence ratio: 1.01

TCCGTAACGG
switch fluorescence ratio: 1.06

ATTAGGAGG
switch fluorescence ratio: 0.966

ACTATTCAA
switch fluorescence ratio: 1.04

GCGTGGACAC
switch fluorescence ratio: 1.05

GGGAGTGTTC
switch fluorescence ratio: 1.01

AGGCATTGCT
switch fluorescence ratio: 1.03

GCCTGGGGCA
switch fluorescence ratio: 0.995

ACGAATCATA
switch fluorescence ratio: 1.05

TGTGTAAAAG
switch fluorescence ratio: 0.999

ATCCATATAT
switch fluorescence ratio: 1.07

TGCATACCCG
switch fluorescence ratio: 1.05

GCATTTATCG
switch fluorescence ratio: 1.01

GTCGGCCCAA
switch fluorescence ratio: 1.05

CCCGTGCCCA
switch fluorescence ratio: 1.02

TACAGAAAGT
switch fluorescence ratio: 0.995

CACTGCTGTT
switch fluorescence ratio: 1.01

TGATGGGTCT
switch fluorescence ratio: 1.04

TCTAAGAATG
switch fluorescence ratio: 0.96

CAATGTTGCG
switch fluorescence ratio: 1.02

AAGTATTTGG
switch fluorescence ratio: 0.977

GTACATTAGT
switch fluorescence ratio: 1.01

AATGCTGCCT
switch fluorescence ratio: 1.05

TGTCTTCGAA
switch fluorescence ratio: 0.987

AAGAGTAGCA
switch fluorescence ratio: 0.972

TTGCAGCCGA
switch fluorescence ratio: 1.02

TGGGTCGCGA
switch fluorescence ratio: 0.989

CGCATTTTTC
switch fluorescence ratio: 1.55

GTCGTGTCCT
switch fluorescence ratio: 1

GAGGGAGAGC
switch fluorescence ratio: 0.979

TAGCGTACAG
switch fluorescence ratio: 1.08

AAGAGCGTCC
switch fluorescence ratio: 1.01

CCCTAAAGGT
switch fluorescence ratio: 1.09

GGCTTTATT
switch fluorescence ratio: 0.968

TACTCTCTCG
switch fluorescence ratio: 0.955

GGAGCCGACC
switch fluorescence ratio: 1.08

Source: the supplement of paper PMC10126150
